# Assay results from patent US20230165252A1, “ACTIVE COMPOUND COMBINATIONS” (Bayer Aktiengesellschaft, priority 2020, published 2023).
# Values joined by “and” are separate entries in the source; they are usually repeats but may differ in a detail not shown here. Equal values may be shown once. At least one read-out could not be matched to a standard name with certainty.
# How the values were obtained:
# Format in all cases: cell-based
# Diaporthe citri = assay: in vitro-Test with Diaporthe citri (microtiter growth inhibition); details: applied alone
# Procedure: (§1) If the actual fungicidal activity exceeds the calculated value, then the activity of the combination is super-additive, i.e. a synergistic effect exists. In this case, the efficacy, which was actually observed, must be greater than the value for the expected efficacy (E), that was calculated from the abovementioned formula.
# (§2) Example: In Vitro-Test with Fungal Microorganisms
# (§3) Wells of 96-well microtiter plates are filled with 10 μl of a preparation of test compound or compound combination in methanol+emulsifier alkylaryl-polyglycol-ether. Thereafter, the solvent is evaporated in a hood. At the next step, 100 μl of liquid potato dextrose medium is given into each well, that has been amended with an appropriate concentration of spores or mycelium suspension of the test fungus.
# (§4) With the aid of a photometer, the extinction in all wells is measured at the wavelength of 620 nm.
# (§5) The microtiter plates are incubated at 20° C. and 85% relative humidity. The inhibition of growth is determined again photometrically 3-5 days after the application. Efficacy is calculated in relation to the untreated control, 0% efficacy means fungal growth as high as in untreated control while 100% efficacy means no fungal growth is measured.
# [1] = test system: Ustilago segetum var. avenae; assay: in vitro-Test with Ustilago segetum var. avenae (microtiter growth inhibition)
# Procedure: (§6) The degree of efficacy expressed in % is denoted: 0% means an efficacy, which corresponds to that of the control, while an efficacy of 100% means that no disease is observed.
# as §1, §2, §3, §4, §5
# Cordana musae = assay: in vitro-Test with Cordana musae (microtiter growth inhibition); details: single substance
# Procedure: as §6, §1, §2, §3, §4, §5
# [2] = test system: Colletotrichum lindemuthianum; assay: in vitro-Test with Colletotrichum lindemuthianum (microtiter growth inhibition)
# Procedure: as §6, §1, §2, §3, §4, §5
# Alternaria alternate = assay: in vitro-Test with Alternaria alternate (microtiter growth inhibition); details: alone
# Procedure: as §6, §1, §2, §3, §4, §5
# Cercospora beticola = assay: in vitro-Test with Cercospora beticola (microtiter growth inhibition); details: alone
# Procedure: as §6, §1, §2, §3, §4, §5
# Botrytis cinerea = assay: in vitro-Test with Botrytis cinerea (microtiter growth inhibition); details: single active at 0.04 ppm
# Procedure: as §6, §1, §2, §3, §4, §5
# Parastagonospora nodorum = assay: in vitro-Test with Parastagonospora nodorum (microtiter growth inhibition); details: compound alone, 0.04 ppm
# Procedure: as §6, §1, §2, §3, §4, §5
structure (smiles),measurement,setting,value
O=C1c2ccccc2C(=O)N1SC(Cl)(Cl)Cl [folpet],Efficacy,Diaporthe citri; 0.4 ppm,36%
same,Efficacy,Diaporthe citri; 2 ppm,98%
same,Efficacy,Diaporthe citri; 10 ppm,98%
same,Efficacy %,"[1]; single compound, 0.4 ppm",17% and 7%
CCCN(CC)CC1COC2(CCC(C(C)(C)C)CC2)O1 (stereo not drawn) [spiroxamine],Efficacy,Cordana musae; 0.8 ppm,6% and 0%
same,Efficacy,Cordana musae; 20 ppm,3%
CON=C(C(=O)OC)c1ccccc1CON=C(C)c1cccc(C(F)(F)F)c1 [(3.020) trifloxystrobin],Efficacy %,[2]; applied alone at 0.04 ppm,69% and 49%
same,Efficacy %,[2]; applied alone at 0.2 ppm,88%
same,Efficacy %,[2]; applied alone at 1.0 ppm,82% and 80%
O=C1C2CC=CCC2C(=O)N1SC(Cl)(Cl)Cl (stereo not drawn) [captan],Efficacy %,Alternaria alternate; 20 ppm,100%
CC(C)(C)C(O)(CCc1ccc(Cl)cc1)Cn1cncn1 (stereo not drawn) [(1.021) tebuconazole],Efficacy %,[2]; applied alone at 1.0 ppm,38%
OC(Cc1ccccc1Cl)(Cn1nc[nH]c1=S)C1(Cl)CC1 (stereo not drawn) [prothioconazole],Efficacy %,Alternaria alternate; 0.04 ppm,57% and 31%
same,Efficacy %,Alternaria alternate; 0.2 ppm,99%
CC1COC(Cn2cncn2)(c2ccc(Oc3ccc(Cl)cc3)cc2Cl)O1 (stereo not drawn) [difenoconazole],Efficacy %,Alternaria alternate; 1.0 ppm,92%
same,Efficacy %,Cercospora beticola; 0.2 ppm,87% and 82%
same,Efficacy,Diaporthe citri; 1.0 ppm,90%
OC(Cc1ccccc1Cl)(Cn1nc[nH]c1=S)C1(Cl)CC1 (stereo not drawn) [(1.018) prothioconazole],Efficacy %,Botrytis cinerea,43%
same,Efficacy %,[2]; applied alone at 0.04 ppm,10% and 0%
same,Efficacy %,[2]; applied alone at 0.2 ppm,59% and 55%
same,Efficacy %,Parastagonospora nodorum,83%
CC(C)(C)C(O)(CCc1ccc(Cl)cc1)Cn1cncn1 (stereo not drawn) [tebuconazole],Efficacy %,Alternaria alternate; 0.008 ppm,10%
same,Efficacy %,Alternaria alternate; 0.04 ppm,15%
same,Efficacy %,Alternaria alternate; 0.2 ppm,22%
same,Efficacy %,Alternaria alternate; 1.0 ppm,96%
same,Efficacy %,Cercospora beticola; 0.04 ppm,11% and 19%
same,Efficacy %,Cercospora beticola; 0.2 ppm,93% and 96%
same,Efficacy,Cordana musae; 0.008 ppm,0% and 7%
same,Efficacy,Diaporthe citri; 0.04 ppm,39%
same,Efficacy,Diaporthe citri; 0.2 ppm,94%
same,Efficacy,Diaporthe citri; 1.0 ppm,99%
CON=C(C(=O)OC)c1ccccc1CON=C(C)c1cccc(C(F)(F)F)c1 [trifloxystrobin],Efficacy,Cordana musae; 0.008 ppm,19%
same,Efficacy,Cordana musae; 0.04 ppm,28% and 49% and 45%
same,Efficacy,Cordana musae; 0.2 ppm,58% and 64%
Cc1cc(C)nc(Nc2ccccc2)n1 [pyrimethanil],Efficacy %,Alternaria alternate; 0.8 ppm,96%
N#Cc1sc2c(=O)c3ccccc3c(=O)c=2sc1C#N [dithianon],Efficacy %,Alternaria alternate; 4 ppm,81%
same,Efficacy %,Cercospora beticola; 0.8 ppm,6% and 0%
same,Efficacy %,Cercospora beticola; 20 ppm,100%
same,Efficacy,Diaporthe citri; 0.8 ppm,35%
CC1COC(Cn2cncn2)(c2ccc(Oc3ccc(Cl)cc3)cc2Cl)O1 (stereo not drawn) [(1.002) difenoconazole],Efficacy %,"[1]; compound alone, 0.2 ppm",59%
